According to a collection of fitness landscapes (doi:10.1126/science.1257360):
The other results are listed elsewhere or left out.

B1: PhoQ; a variant is named by its letters at X, in order, P23837 (parent)
chain: MKKLLRLFFPLSLRVRFLLATAAVVLVLSLAYGMVALIGYSVSFDKTTFRLLRGESNLFYTLAKWENNKLHVELPENIDKQSPTMTLIYDENGQLLWAQRDVPWLMKMIQPDWLKSNGFHEIEADVNDTSLLLSGDHSIQQQLQEVREDDDDAEMTHSVAVNVYPATSRMPKLTIVVVDTIPVELKSSYMVWSWFIYVLSANLLLVIPLLWVAAWWSLRPIEALAKEVRELEEHNRELLNPATTRELTSLVRNLNRLLKSERERYDKYRTTLTDLTHSLKTPLXXLQXXLRSLRSEKMSVSDAEPVMLEQISRISQQIGYYLHRASMRGGTLLSRELHPVAPLLDNLTSALNKVYQRKGVNISLDISPEISFVGEQNDFVEVMGNVLDNACKYCLEFVEISARQTDEHLYIVVEDDGPGIPLSKREVIFDRGQRVDTLRPGQGVGLAVAREITEQYEGKIVAGESMLGGARMEVIFGRQHSAPKDE

Variants of: B1
Assay: enrichment ratio after two sorts for PhoP signalling (ratio (wild type AVST 3.29)); higher = more functional
Conditions: with PhoP (E. coli)

Point of comparison: TKCN, enrichment ratio 2.43. Against it:
- GIRM — lower, ≤ 0.25
- ETIW — lower, ≤ 0.25
- MLNS — lower, ≤ 0.25
- NAEH — lower, ≤ 0.25
- KDDI — lower, ≤ 0.25
- ADVS — lower, ≤ 0.25
- VKIN — lower, ≤ 0.25
- AQCR — lower, ≤ 0.25
- LVDH — lower, ≤ 0.25
- LDTR — lower, ≤ 0.25
- HAML — higher, 5.58
- TIWE — lower, ≤ 0.25
- WAHM — lower, ≤ 0.25
- LYAY — lower, ≤ 0.25
- EVAQ — lower, ≤ 0.25
- PCLT — lower, ≤ 0.25
- ICQR — lower, ≤ 0.25
- RCDK — lower, ≤ 0.25
- SQQA — lower, ≤ 0.25
- MVIT — lower, ≤ 0.25
- IMWF — lower, ≤ 0.25
- APKG — lower, ≤ 0.25
- NGIS — lower, ≤ 0.25
- NHSE — lower, ≤ 0.25
- VYGL — lower, ≤ 0.25
- YYPF — lower, ≤ 0.25
- EYMM — lower, ≤ 0.25
- ICPR — lower, ≤ 0.25
- VPIS — lower, ≤ 0.25
- IPSG — lower, ≤ 0.25
- NICA — lower, ≤ 0.25
- TWHL — lower, ≤ 0.25
- APNT — lower, ≤ 0.25
- PICL — lower, ≤ 0.25
- FKVW — lower, ≤ 0.25
- YEDP — lower, ≤ 0.25
- MRYH — lower, ≤ 0.25
- VPGS — lower, ≤ 0.25
- DAQW — lower, ≤ 0.25
- CCFK — lower, ≤ 0.25
- DIQN — lower, ≤ 0.25
- RFWN — lower, ≤ 0.25
- PPAR — lower, ≤ 0.25
- SENE — lower, ≤ 0.25
- IAWQ — lower, ≤ 0.25
- KACS — lower, ≤ 0.25
- ATHV — lower, ≤ 0.25
- TSAH — higher, 8.44
- NART — lower, ≤ 0.25
- FGAC — lower, ≤ 0.25
- NIYF — lower, ≤ 0.25
- FLLG — lower, ≤ 0.25
- IHIH — lower, ≤ 0.25
- ELRS — lower, ≤ 0.25
- FRWI — lower, ≤ 0.25
- QCPC — lower, ≤ 0.25
- WFYS — lower, ≤ 0.25
- REAW — lower, ≤ 0.25
- VYSC — lower, ≤ 0.25
- ETSW — lower, ≤ 0.25
- YHRN — lower, ≤ 0.25
- KSTI — lower, ≤ 0.25
- RDDN — lower, ≤ 0.25
- DPWW — lower, ≤ 0.25
- WATD — lower, ≤ 0.25
- MASR — lower, ≤ 0.25
- AHRH — lower, ≤ 0.25
- NPAL — lower, ≤ 0.25
- SHGW — lower, ≤ 0.25
- DRCP — lower, ≤ 0.25
- YWVS — lower, ≤ 0.25
- AMSD — lower, ≤ 0.25
- VWGM — lower, ≤ 0.25
- ITIG — lower, ≤ 0.25
- TYRR — lower, ≤ 0.25
- FNWS — lower, ≤ 0.25
- SEFK — lower, ≤ 0.25
- NRAV — lower, ≤ 0.25
- TLQN — lower, 1.7
- AYRQ — lower, ≤ 0.25
- ATKS — lower, ≤ 0.25
- PSLT — lower, ≤ 0.25
- VEIM — lower, ≤ 0.25
- WVWC — lower, ≤ 0.25
- PVDV — lower, ≤ 0.25
- ARIN — lower, ≤ 0.25
- RLKD — lower, ≤ 0.25
- KEHS — lower, ≤ 0.25
- SGWV — lower, ≤ 0.25
- IDDL — lower, ≤ 0.25
- SYWN — lower, ≤ 0.25
- RKVA — lower, ≤ 0.25
- LSYQ — higher, 4.49
- GHVH — lower, ≤ 0.25
- HASN — lower, ≤ 0.25
- AFTN — lower, ≤ 0.25
- EEGR — lower, ≤ 0.25
- RQTC — lower, ≤ 0.25
- QWLS — lower, ≤ 0.25
- RDPC — lower, ≤ 0.25
- EQAI — lower, ≤ 0.25
- FKYR — lower, ≤ 0.25
- HVGK — lower, ≤ 0.25
- FERC — lower, ≤ 0.25
- QYAA — lower, ≤ 0.25
- KAWK — lower, ≤ 0.25
- NMTD — lower, ≤ 0.25
- FNKP — lower, 1.27
- TLFI — lower, ≤ 0.25
- MKKL — lower, ≤ 0.25
- NFVQ — lower, ≤ 0.25
- VWQG — lower, ≤ 0.25
- AEDP — lower, ≤ 0.25
- YLWS — lower, ≤ 0.25
- CTCH — lower, ≤ 0.25
- QSHL — higher, 13.5
- RVVI — lower, ≤ 0.25
- DYPE — lower, ≤ 0.25
- DRWS — lower, ≤ 0.25
- LRNC — lower, ≤ 0.25
- ACKW — lower, ≤ 0.25
- VFAN — lower, ≤ 0.25
- APRQ — lower, ≤ 0.25
- GHAK — lower, ≤ 0.25
- RRLT — lower, ≤ 0.25
- SSAY — higher, 7.87
- VEEW — lower, ≤ 0.25
- RSAQ — lower, ≤ 0.25
- WRSY — lower, ≤ 0.25
- ANEW — lower, ≤ 0.25
- YGKE — lower, ≤ 0.25
- NAVM — lower, ≤ 0.25
- QDVD — lower, ≤ 0.25
- LEAT — higher, 4.6
- ELMS — lower, ≤ 0.25
- TQMK — lower, ≤ 0.25
- WVIM — lower, ≤ 0.25
- WCNP — lower, ≤ 0.25
- TTKN — lower, ≤ 0.25
- HPNA — lower, ≤ 0.25
- VVFF — lower, ≤ 0.25
- TQNF — higher, 5.58
- NPCV — lower, ≤ 0.25
- VMHP — lower, ≤ 0.25
- PCQA — lower, ≤ 0.25
- GLHI — lower, ≤ 0.25
- MQIC — lower, ≤ 0.25
- LVSI — lower, ≤ 0.25
- TQMR — lower, ≤ 0.25
- DPNV — lower, ≤ 0.25
- LMVV — lower, ≤ 0.25
- DTML — lower, ≤ 0.25
- AQEV — lower, ≤ 0.25
- PALG — lower, ≤ 0.25
- ILLM — lower, ≤ 0.25
- AIFA — lower, ≤ 0.25
- SWGG — lower, ≤ 0.25
- NYTE — lower, ≤ 0.25
- TQVR — lower, ≤ 0.25
- NKMF — lower, ≤ 0.25
- NNSG — lower, ≤ 0.25
- QCWY — higher, 5.67
- REHF — lower, ≤ 0.25
- NRAR — lower, ≤ 0.25
- YGAV — lower, ≤ 0.25
- KGKS — lower, ≤ 0.25
- TTDY — lower, 2.19
- IVLD — lower, ≤ 0.25
- MLSS — lower, ≤ 0.25
- RSGH — lower, ≤ 0.25
- VPGK — lower, ≤ 0.25
- DHKG — lower, ≤ 0.25
- QEDS — lower, ≤ 0.25
- WNQV — lower, ≤ 0.25
- GREP — lower, ≤ 0.25
- WLMR — lower, ≤ 0.25
- MDWI — lower, ≤ 0.25
- GGQR — lower, ≤ 0.25
- WVTH — lower, ≤ 0.25
- FKGK — lower, ≤ 0.25
- MGGN — lower, ≤ 0.25
- PIQW — lower, ≤ 0.25
- WWEF — lower, ≤ 0.25
- KEIV — lower, ≤ 0.25
- MYII — lower, ≤ 0.25
- TTQE — higher, 5.96
- CLYF — lower, ≤ 0.25
- DWMN — lower, ≤ 0.25
- WMMC — lower, ≤ 0.25
- ISSD — lower, ≤ 0.25
- SYKV — lower, ≤ 0.25
- PLNL — lower, ≤ 0.25
- AAGW — lower, ≤ 0.25
- MPPG — lower, ≤ 0.25
